This is an account of results in the supplement of paper PMC4604168 (melanoma cell lines).

This is one part of the list. Many values rest on one well or one pass, so single values are uncertain.
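Further: cell number obtained by counting DAPI-stained nuclei in high-throughput microscope images with image analysis software, screen run in 1,536-well plates.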

The subject of the assay is COLO800. Put plainly: cell count relative to DMSO control; melanoma cells; higher = more viable cells. The note with it: library dose: low library concentration; 72 h.
With `CCN(CC)CCNC(=O)c1c(C)[nH]c(/C=C2\C(=O)Nc3ccc(F)cc32)c1C` [sunitinib] + CC(=O)c1c(C)c2cnc(Nc3ccc(N4CCNCC4)cn3)nc2n(C2CCCC2)c1=O [palbociclib] (first compound 0.4 µM, partner dose 0.04 µM), the cell count was determined as 66.8%. For `C[C@]1(O)C[C@@H](c2nc(-c3ccc4ccc(-c5ccccc5)nc4c3)c3c(N)nccn32)C1` + CNC(=O)c1cc(Oc2ccc(NC(=O)Nc3ccc(Cl)c(C(F)(F)F)c3)cc2)ccn1 [sorafenib] (first compound 0.4 µM, partner dose 0.4 µM) the value was 86.2%; for `Cn1cnc2c(F)c(Nc3ccc(Br)cc3Cl)c(C(=O)NOCCO)cc21` [selumetinib] + COc1ccc(Cl)c(Nc2nc3ccccc3nc2NS(=O)(=O)c2cccc(NC(=O)C(C)(C)N)c2)c1 [XL147] (first compound 0.015 µM, partner dose 0.8 µM), 110%; for `Cn1cnc2c(F)c(Nc3ccc(Br)cc3Cl)c(C(=O)NOCCO)cc21` [selumetinib] + CN(c1ncccc1CNc1nc(Nc2ccc3c(c2)CC(=O)N3)ncc1C(F)(F)F)S(C)(=O)=O [PF562271] (first compound 0.015 µM, partner dose 0.08 µM), 88.5%. For `C[C@]1(O)C[C@@H](c2nc(-c3ccc4ccc(-c5ccccc5)nc4c3)c3c(N)nccn32)C1` + CCCCCCCCc1ccc(CCC(N)(CO)CO)cc1 [fingolimod] (first compound 0.4 µM, partner dose 2 µM) the value was 71.2%. For `Cn1cnc2c(F)c(Nc3ccc(Br)cc3Cl)c(C(=O)NOCCO)cc21` [selumetinib] + CCCCCCCCc1ccc(CCC(N)(CO)CO)cc1 [fingolimod] (first compound 0.015 µM, partner dose 2 µM) the value was 101%; for `CCN(CC)CCNC(=O)c1c(C)[nH]c(/C=C2\C(=O)Nc3ccc(F)cc32)c1C` [sunitinib] + CN1CCN(c2ccc3nc(-c4c(N)c5c(F)cccc5[nH]c4=O)[nH]c3c2)CC1 [Dovitinib] (first compound 0.4 µM, partner dose 0.1 µM), 88.4%. Regarding `Cn1cnc2c(F)c(Nc3ccc(Br)cc3Cl)c(C(=O)NOCCO)cc21` [selumetinib] + Cn1c(Nc2ccc(C(F)(F)F)cc2)nc2cc(Oc3ccnc(-c4ncc(C(F)(F)F)[nH]4)c3)ccc21 [CHIR265] (first compound 0.015 µM, partner dose 0.08 µM), the cell count stood at 67.3%. The compound `COc1cc([C@@H]2c3cc4c(cc3[C@@H](O[C@@H]3O[C@@H]5CO[C@@H](C)O[C@H]5[C@H](O)[C@H]3O)[C@H]3COC(=O)[C@H]23)OCO4)cc(OC)c1O` [etoposide] + O=C(Nc1cc(C(F)(F)F)cc(C(F)(F)F)c1)c1cc(Cl)ccc1O [IMD0354] (first compound 0.02 µM, partner dose 0.016 µM) yielded a cell count of 110%. `CCN(CC)CCNC(=O)c1c(C)[nH]c(/C=C2\C(=O)Nc3ccc(F)cc32)c1C` [sunitinib] + CC(=O)O[C@@]12CO[C@@H]1C[C@H](O)[C@@]1(C)C(=O)[C@H](O)C3=C(C)[C@@H](OC(=O)[C@H](O)[C@@H](NC(=O)OC(C)(C)C)c4ccccc4)C[C@@](O)([C@@H](OC(=O)c4ccccc4)[C@H]21)C3(C)C [Docetaxel] (first compound 0.4 µM, partner dose 0.0001 µM): the cell count is 54.3%. For `C[C@]1(O)C[C@@H](c2nc(-c3ccc4ccc(-c5ccccc5)nc4c3)c3c(N)nccn32)C1` + CN1CCN(c2ccc3nc(-c4c(N)c5c(F)cccc5[nH]c4=O)[nH]c3c2)CC1 [Dovitinib] (first compound 0.4 µM, partner dose 0.1 µM) the value was 37.9%. For `C[C@]1(O)C[C@@H](c2nc(-c3ccc4ccc(-c5ccccc5)nc4c3)c3c(N)nccn32)C1` + CC(C)C[C@H](NC(=O)[C@H](Cc1ccccc1)NC(=O)c1cnccn1)B(O)O [Bortezomib] (first compound 0.4 µM, partner dose 0.001 µM) the value was 61.1%.
